From the supplement of paper PMC3334620
Over roughly 33,000 sequences, “E-score (-0.5 to 0.5)” has its median near -0.01; the highest 2% begin near 0.26. The list shows a part of the results.

molecular target: Ste12 (UniProt P13574); assay: PBM E-score (8-mer binding enrichment) (E-score (-0.5 to 0.5)); higher = stronger / more preferred TF binding; most listed sequences are background and not binding sites; conditions: protein concentration: 200 nM; construct: GST-DNA-binding domain
Description: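 Universal 'all 10-mer' protein binding microarrays (Agilent AMADID 015681) probed with GST-tagged S. cerevisiae TFs (full-length or DBD) made by in vitro transcription/translation (PURExpress), about 100-200 nM. Bound TF was detected with fluorescent anti-GST. Each ungapped 8-mer (which stands for itself and its reverse complement) is scored by the PBM enrichment score (E-score), a modified Wilcoxon-Mann-Whitney statistic from -0.5 to +0.5, computed with the Universal PBM Analysis Suite. Scale: above 0.35 generally sequence-specific binding.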

Sequence	PBM E-score
CTTCCCAC	0.121
TAAGACAA	0.209
GGCTCTAC	-0.076
ACGGGTTC	-0.162
ACCCTAAT	-0.268
CATAATTA	0.204
CTCCGAGC	0.153
AAGATGTA	0.0402
AGCGGGTA	-0.107
CCGAAATC	0.0152
CGTCTTAC	-0.0338
CCCTTACG	-0.322
TGTGCAAA	0.00039
CATATCTA	0.176
GGCTCAAC	-0.238
TGTTGGAA	0.113
CATGCCCC	-0.0674
AGACTTGA	0.0655
GCATGCGC	-0.164
AGTACAAT	-0.0129
AACACGCA	-0.0376
CGTCTCCC	-0.0248
GAGCGTGC	-0.0127
ATCGCAGG	-0.0915
AGCAGATC	0.0023

Sequence	PBM E-score
ATATTTGC	0.101
CTCGTAGC	0.00986
ATCTGTTC	0.0998
CACTTTAG	0.0171
ATTGAGAC	0.122
GGATGTAA	0.125
GGATTCTA	-0.117
GGGCAGAA	0.131
GCAGAGGC	-0.185
AAATAACG	0.21
ATCGCCTG	-0.104
CGGGCGAG	0.127
AGACGCAA	0.0173
GCGCAAAC	0.046
GCTGCAAC	0.0712
ATGTGTTC	0.0256
AGGGCAAA	0.00224
CATGAAAG	-0.00226
CATACGGA	-0.084
CCGGGCGC	-0.103
AGCGAGGA	-0.105
CAACTACC	0.0836
CGAGCGCA	0.0982
TAGACGCA	-0.146
ACTTAAAC	0.145

Sequence	PBM E-score
ATGCCCGC	-0.0459
CACATGAG	-0.0681
TCCGGAAA	0.137
CGCACCCG	-0.0241
TCGACGAA	-0.21
GTTAGGAA	0.117
GCCAGCAC	-0.106
ACTACAGC	-0.0318
CTGTCCAC	-0.0152
AAATATAA	0.224
CCACGAGG	-0.177
AGTGTAAT	0.0365
CACTAAAC	0.0968
AAACGGCG	0.149
ACAATTTG	0.0452
AAACTGTA	0.135
GGTGGGGA	0.318
AAACCGAG	0.114
ATGACACG	0.101
AGCGTCGC	-0.158
AGGACGGA	-0.085
GCATAATA	0.197
AAGCAGGG	-0.153
CCGGGCGA	0.0118
CGGATATC	0.0116

Sequence	PBM E-score
ATAGTCGA	0.0834
ACACTAGA	0.0537
AGCATAGG	-0.058
CATCTTAC	0.0134
ACAACTAT	0.187
CCCATGCA	0.00631
TCTATAAA	0.201
GACTAGCC	-0.182
ACCGCGAG	-0.151
TTAGTAAA	0.186
CGGAACCA	0.00676
CGGCCCAA	0.0104
ATTGATGA	0.0256
AGGGGATG	0.0956
AAGTAGGC	0.0462
AGATGCCG	-0.0209
ACGATGGA	0.00249
CGTCTTGC	-0.0115
GATTTAAA	0.113
AATAAGCT	0.0505
ACCACCAT	0.0431
GCTTGTTA	0.0415
GCCCTTTA	-0.182
AAGCTAGG	-0.0794
CCCCAGTC	-0.176

Sequence	PBM E-score
CAGCAATA	-0.0432
GCTATAGC	-0.0419
CAGGCCCC	-0.0848
CCAATATA	-0.103
CATTCCGG	0.0164
GCCATTAC	0.181
AGGGCTTC	-0.0834
ATCAAGAT	0.0655
GGCCGATA	-0.079
ACCTATCG	-0.0147
TTCACGAA	-0.046
ATGGCTTA	0.0392
TACTTTAA	0.251
ACAAGGGG	-0.092
AACATCTG	-0.155
CTGTGACA	0.102
ATAGACGC	0.0365
CCGCTGCA	-0.0719
ATCAGGAA	0.02
CTGCGAAG	-0.277
AACAGAGC	0.0874
AGCCGAGA	-0.102
GGCACCCC	-0.0957
CAAGGAGG	-0.075
CTGTCTTA	-0.132

Sequence	PBM E-score
AGACACGG	-0.132
CGACTAGC	-0.0587
ATGCCCCA	-0.105
AGAATCCG	-0.1
AATCTTCT	0.0766
TCGGGAGA	-0.151
ACGGTGTG	-0.171
CCGAATAA	0.133
CCACAAAG	0.0762
ACCCACAT	-0.0368
GTACGCTA	-0.0588
ACAGAAGA	-0.0268
ACATTTTG	0.0789
CGCGCAAG	0.0503
TCCTCAGA	-0.0776
CTAAGTTA	0.111
AAGATCAT	-0.13
CCTCTGAC	-0.0436
CGAGCCAC	-0.143
CAACAACC	0.0311
GTACGCAC	-0.147
GAGTCCAA	-0.00274
GGTACACC	-0.216
AATAGAAT	0.0388
ATCACTAG	-0.207

Sequence	PBM E-score
CCATCGTC	-0.0845
CACTGGTA	-0.00285
AATGTACT	0.137
CTAGTCCC	-0.18
CAACAGAC	-0.018
TGACGGCA	0.0373
CAGAAAAC	0.133
GTCAACAC	0.0424
ACGGCTCG	-0.0221
CAGCTGTA	-0.11
CACCGGTA	0.0542
TATTCGAA	0.0527
ACTGTCAA	-0.0201
ATAGAGCG	-0.105
CTTGAGTC	-0.136
ATGGTGCA	-0.105
CTTACATC	0.093
TACCGTGA	-0.00059
GAGACGGA	-0.0823
AATTGCCC	0.0476
CTGACTTA	0.0671
ACTTCTCT	0.0703
AGCAGGCT	-0.266
CCAGAACG	0.113
ACCGGTCA	0.0217

Sequence	PBM E-score
ATCGCCCG	-0.112
ACAACGTC	-0.135
ATGCAACG	0.141
AGGTATGA	0.0451
ATGATAAC	0.138
GGCTTCCA	-0.25
GATGAGCC	-0.203
CACGGGTC	-0.141
CGCCCCTC	0.351
GGATTCCA	0.107
GACGGTAC	-0.0808
ATCACATA	-0.0478
CACCATGA	0.0412
CAGATCTA	-0.108
AATGCTCA	-0.0981
CCGTTATC	-0.00617
AGCGAAGG	-0.0315
CTCCCTAA	-0.0679
CACATTCG	0.0938
ATTACCGA	0.186
AGTCCACG	-0.0884
ATCGGTGA	0.0622
AGATTATC	-0.0475
AACGACAA	0.153
AAATGATG	0.0593

Sequence	PBM E-score
GACGGAGC	-0.0257
ACAATCAA	-0.0462
CCCTAGCG	-0.19
CATCGCAG	0.0257
GCCGTCCA	-0.101
AGACGCTG	-0.0846
GGGTGTTA	0.11
CCGCTTTA	0.115
GCCCGAAA	0.113
ATAGATTA	0.209
AATTGCTC	-0.099
ACTGATCA	0.0587
ATGACCGC	-0.0289
CTTTCCGA	0.131
CGCGAACA	0.0454
CCGAGAAA	0.162
ATGCTGCC	-0.122
CCTTGCCA	-0.00668
ATACTAAG	-0.0742
GAATTCCC	-0.0071
AGCTCTAC	-0.165
ACTAGCAG	0.0511
CTGTAGTC	-0.214
AGCCCTTA	-0.258
GTCGTAAC	0.107

Sequence	PBM E-score
ACCGATAA	0.147
AGGGTCAA	0.113
CCAGCAGC	-0.0947
GGTAATAC	0.185
ATAAGTTA	0.138
GCCTCTAC	-0.239
GAAGCGCA	-0.162
ATGCATAG	-0.11
CGCTAAGA	0.0474
CAGCTATA	0.0924
GCGTAAGC	-0.24
CCGTGTAG	-0.0265
CGCGTGCA	-0.0192
CGAATCAA	0.162
CAACCATA	0.0684
CTCAGTCC	-0.221
AATCGTGA	-0.0689
CGGCGACG	0.0339
CGCGTTAA	0.00101
CCTATCCG	-0.15
GCCCGCGC	0.0479
AATCGTCA	-0.0429
CAGGCAGG	-0.145
ACCGTAGG	-0.274
CACCCCTG	-0.0572

Sequence	PBM E-score
GCTAATAA	-0.0235
AGAAAAGG	0.176
GATGATAC	0.0614
TACATACA	0.192
ATAAACGG	0.142
GGATTGCA	0.117
AAAGGTGA	0.0476
ACGTTTTG	0.222
CGCGGTTA	0.0706
GGCGAGCA	-0.0713
GTCTAAAA	0.135
CCGGTGAG	-0.0624
CCGATCGC	-0.0205
AGAGAATC	-0.0492
CGAACACA	0.0728
TCATCGAA	0.0775
AGTATGAT	0.0791
GGGAGATA	-0.0771
AGTGGTTC	-0.158
TTACCAAA	0.263
GATGAGGC	0.0467
ATAAAAGC	-0.00425
CACGCCAA	-0.0924
ACGTCAGT	-0.138
GACGTATA	-0.0508

Sequence	PBM E-score
CAATCGGA	0.204
CACGTCGG	-0.194
AGTGTCGG	0.0566
CCTGTACG	-0.131
GGAAGACC	-0.00071
AACTGATT	-0.0149
ACGCCGAT	0.00428
AGCCAACT	-0.112
GAGCGTAA	0.0788
CACCGGGA	0.0376
AGTATACT	-0.1
ATTAGAAA	0.15
CACATAAG	0.044
GCAAAGGC	-0.221
GAAGAGAC	0.0213
AACAGCTA	-0.0909
CACAACCC	-0.112
AATACGAA	0.176
CATTTAGC	-0.126
GTAGAAGA	-0.0532
CCGCCCTA	0.0241
AGCGTGCG	0.02
CCATATAA	0.101
ACGTAACG	-0.00102
CTAAGTAA	0.0277

Sequence	PBM E-score
AATCTGCT	-0.2
AGGTTGCC	-0.0936
AGGCACCT	-0.3
CCTGGCCC	-0.202
CTCAATCA	0.0531
AGCGCAAG	-0.0674
CTCCGTCA	-0.0659
AGTGGGTC	-0.103
CTTTCCCA	-0.00597
ACGCTCTA	-0.267
CGCTGCGA	0.0236
TAATGATA	0.272
GGTGCCAC	-0.171
AAAATGAT	0.317
AAAGTTGG	0.0145
AGCGTAAC	0.0325
GACGAGTC	-0.0383
CCGTTACG	-0.094
CTATAAAG	0.0956
GATTTGCC	0.0469
AGCTACCA	-0.0088
TCAACTCA	0.0748
GAGCCAAA	0.181
AATCAGGT	0.165
AAGTTCAA	0.124

Sequence	PBM E-score
AATCTCCC	0.0742
CTGTGGCC	-0.268
AGCTGTTC	-0.165
AAACAGGT	0.0754
CAATTAAG	0.123
AAAGCAAA	0.148
CACCCATC	0.0166
GACCGTGA	-0.0399
GGAAGAAA	0.208
AAGAAGGG	0.0119
TAGGGACA	-0.0368
GCCAGGAC	-0.0764
ATGCAAGG	0.0272
AGTTTGGA	0.115
AAAATATA	0.241
GCCGCACA	-0.0587
ATATAACC	0.168
AAACCTAG	0.16
GCAGCCCA	-0.22
